Experimental data from the supplement of paper PMC10037445.
In all, about 2,900 compounds were measured (“IRF Lucia reporter activity, fold change vs agonist alone”: median about 0.9, highest 2% from about 2.8 on). Some of the results follow.

Experiments:
RAW-Dual [1] = assay: IRF Lucia reporter activity, fold change vs agonist alone; cytotoxicity flag (confluency mask): not cytotoxic; higher = enhanced IRF activity
Procedure, shortened: (§1)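 Supernatant from RAW-Dual macrophages was read after 20 hours for IRF by QuantiLuc luminescence and for NF-κB by QuantiBlue absorbance at 620 nm. The cells (50,000 cells/well in DMEM, 384-well plates, 37 °C, 5% CO2) had received 50 nL of library stock by pin tool and, 1 h later, a PRR agonist. Reporter activity is expressed relative to agonist-alone wells as fold change, and wells were flagged cytotoxic if IncuCyte confluency was under 70% of agonist controls in both mask sets.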

RAW-Dual [2] = assay: IRF Lucia reporter activity, fold change vs agonist alone; higher = enhanced IRF activity; conditions: cytotoxicity flag (confluency mask): not cytotoxic, agonist: MPLA (TLR4) […]
Procedure, shortened: as §1

[3] = agonist: 3'3'-cGAMP (STING) 10 ug/mL
[4] = library stock concentration (final ~1000-fold dilution): 10 mM

**Q.** Which “IRF Lucia reporter activity” value (RAW-Dual [1]; [3]) does the source give for `Brc1c(Br)c(Br)c2[nH]nnc2c1Br` (library stock concentration (final ~1000-fold dilution): 10 mM) here?
**A.** Its value is 0.812.

**Q.** What about the “IRF Lucia reporter activity” value (RAW-Dual [1]; agonist: LPS (TLR4) 0.1 ug/mL) of the same molecule?
**A.** Its value is 0.755.

**Q.** With `Brc1c(Br)c(Br)c2[nH]nnc2c1Br` as the molecule, how does the “IRF Lucia reporter activity” value (RAW-Dual [2]; [4]) read?
**A.** The value was 0.902.

**Q.** `Cc1cc(-c2ncc(CC(=O)Nc3ccc(-c4cnccn4)cn3)cc2C)ccn1` (library stock concentration (final ~1000-fold dilution): 10 mM) was tested. Which “IRF Lucia reporter activity” value (RAW-Dual [1]; [3]) did it give?
**A.** Its value is 0.983.

**Q.** What about the “IRF Lucia reporter activity” value (RAW-Dual [1]; agonist: LPS (TLR4) 0.1 ug/mL) of the same molecule?
**A.** Its value is 1.01.

**Q.** With `Cc1cc(-c2ncc(CC(=O)Nc3ccc(-c4cnccn4)cn3)cc2C)ccn1` as the molecule, how does the “IRF Lucia reporter activity” value (RAW-Dual [2]; [4]) read?
**A.** Its value is 0.884.

**Q.** `CN1CCC(NC(=O)c2cc(-c3c(O)cc(O)cc3Oc3ccc([N+](=O)[O-])cc3)on2)CC1` (library stock concentration (final ~1000-fold dilution): 10 mM) was tested. Which “IRF Lucia reporter activity” value (RAW-Dual [1]; [3]) did it give?
**A.** The value was 0.883.

**Q.** What about the “IRF Lucia reporter activity” value (RAW-Dual [1]; agonist: LPS (TLR4) 0.1 ug/mL) of the same molecule?
**A.** The value was 0.22.

**Q.** With `CN1CCC(NC(=O)c2cc(-c3c(O)cc(O)cc3Oc3ccc([N+](=O)[O-])cc3)on2)CC1` as the molecule, how does the “IRF Lucia reporter activity” value (RAW-Dual [2]; [4]) read?
**A.** The value was 1.04.

**Q.** Which results are given for `COc1cc2ncnc(Oc3ccc(CC(=O)Nc4cnn(C(C)C)c4)cc3)c2cc1OC` (library stock concentration (final ~1000-fold dilution): 10 mM)?
**A.** IRF Lucia reporter activity (RAW-Dual [1]; [3]): 0.758; IRF Lucia reporter activity (RAW-Dual [1]; agonist: LPS (TLR4) 0.1 ug/mL): 0.474

**Q.** Which “IRF Lucia reporter activity” value (RAW-Dual [2]; [4]) does the source give for `COc1cc2ncnc(Oc3ccc(CC(=O)Nc4cnn(C(C)C)c4)cc3)c2cc1OC` here?
**A.** Its value is 0.67.

**Q.** `C=CCCC(=O)O` (library stock concentration (final ~1000-fold dilution): 10 mM) was tested. Which “IRF Lucia reporter activity” value (RAW-Dual [1]; [3]) did it give?
**A.** Its value is 0.708.

**Q.** And the “IRF Lucia reporter activity” value (RAW-Dual [1]; agonist: LPS (TLR4) 0.1 ug/mL)?
**A.** Its value is 0.883.

**Q.** How did the “IRF Lucia reporter activity” value (RAW-Dual [2]; [4]) turn out when `C=CCCC(=O)O` was run?
**A.** The value was 1.05.

**Q.** Which results are given for `CC(C)(C)/[N+]([O-])=C/c1ccc(S(=O)(=O)O)cc1S(=O)(=O)O` (library stock concentration (final ~1000-fold dilution): 10 mM)?
**A.** IRF Lucia reporter activity (RAW-Dual [1]; [3]): 0.879; IRF Lucia reporter activity (RAW-Dual [1]; agonist: LPS (TLR4) 0.1 ug/mL): 1.34

**Q.** For `COC(=O)NC(C(=O)N1CCCC1c1ncc(-c2ccc3c(c2)OC(c2ccccc2)n2c-3cc3cc(-c4cnc(C5CCCN5C(=O)C(NC(=O)OC)C(C)C)[nH]4)ccc32)[nH]1)C(C)C` (stereo not drawn), which “IRF Lucia reporter activity” value (RAW-Dual [2]; [4]) is on record?
**A.** The value was 1.01.

**Q.** Which “IRF Lucia reporter activity” value (RAW-Dual [1]; [3]) does the source give for `COC(=O)NC(C(=O)N1CCCC1c1ncc(-c2ccc3c(c2)OC(c2ccccc2)n2c-3cc3cc(-c4cnc(C5CCCN5C(=O)C(NC(=O)OC)C(C)C)[nH]4)ccc32)[nH]1)C(C)C` (stereo not drawn) (library stock concentration (final ~1000-fold dilution): 10 mM) here?
**A.** Its value is 1.07.

**Q.** What about the “IRF Lucia reporter activity” value (RAW-Dual [1]; agonist: LPS (TLR4) 0.1 ug/mL) of the same molecule?
**A.** The value was 1.16.

**Q.** How did the “IRF Lucia reporter activity” value (RAW-Dual [2]; [4]) turn out when `COc1ncc(-c2ccc3nccc(-c4ccnnc4)c3c2)cc1NS(=O)(=O)c1ccc(F)cc1F` was run?
**A.** The value was 1.11.

**Q.** What does the source list for `COc1ncc(-c2ccc3nccc(-c4ccnnc4)c3c2)cc1NS(=O)(=O)c1ccc(F)cc1F` (library stock concentration (final ~1000-fold dilution): 10 mM)?
**A.** IRF Lucia reporter activity (RAW-Dual [1]; [3]): 1.09; IRF Lucia reporter activity (RAW-Dual [1]; agonist: LPS (TLR4) 0.1 ug/mL): 3.52

**Q.** What does the source list for `CNCCC(Oc1ccccc1C)c1ccccc1.Cl` (stereo not drawn) (library stock concentration (final ~1000-fold dilution): 10 mM)?
**A.** IRF Lucia reporter activity (RAW-Dual [1]; [3]): 0.969; IRF Lucia reporter activity (RAW-Dual [1]; agonist: LPS (TLR4) 0.1 ug/mL): 1.09

**Q.** How did the “IRF Lucia reporter activity” value (RAW-Dual [2]; [4]) turn out when `CNCCC(Oc1ccccc1C)c1ccccc1.Cl` (stereo not drawn) was run?
**A.** The value was 1.06.

**Q.** How did the “IRF Lucia reporter activity” value (RAW-Dual [2]; [4]) turn out when `CN1CCCN=C1/C=C/c1cccc(O)c1.O=C(O)c1cc2ccccc2c(Cc2c(O)c(C(=O)O)cc3ccccc23)c1O` was run?
**A.** The value was 0.491.

**Q.** With `CN1CCCN=C1/C=C/c1cccc(O)c1.O=C(O)c1cc2ccccc2c(Cc2c(O)c(C(=O)O)cc3ccccc23)c1O` (library stock concentration (final ~1000-fold dilution): 10 mM) as the molecule, how does the “IRF Lucia reporter activity” value (RAW-Dual [1]; [3]) read?
**A.** The value was 0.401.

**Q.** And the “IRF Lucia reporter activity” value (RAW-Dual [1]; agonist: LPS (TLR4) 0.1 ug/mL)?
**A.** The value was 0.421.

**Q.** With `CCCCC(=O)N(Cc1ccc(-c2ccccc2-c2nn[nH]n2)cc1)C(C(=O)O)C(C)C.CCOC(=O)C(C)CC(Cc1ccc(-c2ccccc2)cc1)NC(=O)CCC(=O)O` (stereo not drawn) (library stock concentration (final ~1000-fold dilution): 10 mM) as the molecule, how does the “IRF Lucia reporter activity” value (RAW-Dual [1]; [3]) read?
**A.** The value was 0.572.

**Q.** What about the “IRF Lucia reporter activity” value (RAW-Dual [1]; agonist: LPS (TLR4) 0.1 ug/mL) of the same molecule?
**A.** Its value is 0.731.

**Q.** `C=C(C)C1CCC2(C)CCC3(C)C(CCC4C5(C)CCC(O)C(C)(C)C5CCC43C)C12` (stereo not drawn) was tested. Which “IRF Lucia reporter activity” value (RAW-Dual [2]; library stock concentration (final ~1000-fold dilution): 2 mM) did it give?
**A.** Its value is 1.2.

**Q.** What does the source list for `C=C(C)C1CCC2(C)CCC3(C)C(CCC4C5(C)CCC(O)C(C)(C)C5CCC43C)C12` (stereo not drawn) (library stock concentration (final ~1000-fold dilution): 2 mM)?
**A.** IRF Lucia reporter activity (RAW-Dual [1]; [3]): 1; IRF Lucia reporter activity (RAW-Dual [1]; agonist: LPS (TLR4) 0.1 ug/mL): 0.988

**Q.** Which results are given for `CC(C)=CCC/C(C)=C/CC/C(C)=C/CSc1ccccc1C(=O)O` (library stock concentration (final ~1000-fold dilution): 10 mM)?
**A.** IRF Lucia reporter activity (RAW-Dual [1]; [3]): 0.776; IRF Lucia reporter activity (RAW-Dual [1]; agonist: LPS (TLR4) 0.1 ug/mL): 0.854

**Q.** `Br.CN(C)CCCC1(c2ccc(F)cc2)OCc2cc(C#N)ccc21` (stereo not drawn) was tested. Which “IRF Lucia reporter activity” value (RAW-Dual [2]; [4]) did it give?
**A.** The value was 1.1.

**Q.** Which “IRF Lucia reporter activity” value (RAW-Dual [1]; [3]) does the source give for `Br.CN(C)CCCC1(c2ccc(F)cc2)OCc2cc(C#N)ccc21` (stereo not drawn) (library stock concentration (final ~1000-fold dilution): 10 mM) here?
**A.** Its value is 0.98.

**Q.** What about the “IRF Lucia reporter activity” value (RAW-Dual [1]; agonist: LPS (TLR4) 0.1 ug/mL) of the same molecule?
**A.** Its value is 1.08.

**Q.** Which “IRF Lucia reporter activity” value (RAW-Dual [1]; [3]) does the source give for `O=C1C(O)=C(O)OC1C(O)CO` (stereo not drawn) (library stock concentration (final ~1000-fold dilution): 10 mM) here?
**A.** The value was 0.914.

**Q.** What about the “IRF Lucia reporter activity” value (RAW-Dual [1]; agonist: LPS (TLR4) 0.1 ug/mL) of the same molecule?
**A.** The value was 1.11.

**Q.** Which “IRF Lucia reporter activity” value (RAW-Dual [1]; [3]) does the source give for `CC(NC(=O)c1ncnc(N)c1Cl)c1ncc(C(=O)Nc2cc(C(F)(F)F)c(Cl)cn2)s1` (stereo not drawn) (library stock concentration (final ~1000-fold dilution): 10 mM) here?
**A.** Its value is 0.906.

**Q.** And the “IRF Lucia reporter activity” value (RAW-Dual [1]; agonist: LPS (TLR4) 0.1 ug/mL)?
**A.** Its value is 0.968.
